# Reference: the supplement of paper PMC8728848
# The list shows a part of the results.
# How the values were obtained:
# Experiment in all cases: glycan array binding signal (z-score within array); higher = stronger binding
# Conditions in all cases: glycan notation: IUPAC condensed, linker removed
# Gal(a1-3)GalNAc = target: Gal(a1-3)GalNAc
# How it was run: (§1)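 Glycan array binding is given as a within-array Z-score, which can be read as non-binding when negative. The arrays, 3228 of them, came from the Consortium for Functional Glycomics database and were retained only where the protein sequence was available. Z-scores were averaged across arrays of the same protein sequence at different concentrations or buffers and across linkers.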
# [1] = target: Gal(a1-3)[Gal(a1-4)]Gal(b1-4)GlcNAc
# How it was run: as §1
# [2] = target: Gal(a1-4)Gal(b1-3)GlcNAc(b1-2)Man(a1-3)[Gal(a1-4)Gal(b1-3)GlcNAc(b1-2)Man(a1-6)]Man(b1-4)GlcNAc(b1-4)GlcNAc
# How it was run: as §1
# Gal(a1-4)Gal(b1-4)Glc = target: Gal(a1-4)Gal(b1-4)Glc
# How it was run: as §1
# Gal(a1-4)Gal(b1-4)GlcNAc = target: Gal(a1-4)Gal(b1-4)GlcNAc
# How it was run: as §1
# [3] = target: Gal(a1-4)Gal(b1-4)GlcNAc(b1-2)Man(a1-3)[Gal(a1-4)Gal(b1-4)GlcNAc(b1-2)Man(a1-6)]Man(b1-4)GlcNAc(b1-4)GlcNAc
# How it was run: as §1
# [4] = target: Gal(a1-4)Gal(b1-4)GlcNAc(b1-3)Gal(b1-4)Glc
# How it was run: as §1
# Gal(a1-4)GlcNAc = target: Gal(a1-4)GlcNAc
# How it was run: as §1
# Gal(a1-6)Glc = target: Gal(a1-6)Glc
# How it was run: as §1
# Gal(b1-2)Gal = target: Gal(b1-2)Gal
# How it was run: as §1
# Gal(b1-3)Gal = target: Gal(b1-3)Gal
# How it was run: as §1
# Gal(b1-3)Gal(b1-4)GlcNAc = target: Gal(b1-3)Gal(b1-4)GlcNAc
# How it was run: as §1
# Gal(b1-3)GalNAc = target: Gal(b1-3)GalNAc
# How it was run: as §1
# [5] = target: Gal(b1-3)GalNAc(a1-3)[Fuc(a1-2)]Gal(b1-4)Glc
# How it was run: as §1
# [6] = target: Gal(b1-3)GalNAc(a1-3)[Fuc(a1-2)]Gal(b1-4)GlcNAc
# How it was run: as §1
# Gal(b1-3)GalNAc(b1-3)Gal = target: Gal(b1-3)GalNAc(b1-3)Gal
# How it was run: as §1
# [7] = target: Gal(b1-3)GalNAc(b1-3)Gal(a1-4)Gal(b1-4)Glc
# How it was run: as §1
# [8] = target: Gal(b1-3)GalNAc(b1-4)Gal(b1-4)Glc
# How it was run: as §1
# [9] = target: Gal(b1-3)GalNAc(b1-4)[Neu5Ac(a2-3)]Gal(b1-4)Glc
# How it was run: as §1
# Gal(b1-3)GlcNAc = target: Gal(b1-3)GlcNAc
# How it was run: as §1
# [10] = target: Gal(b1-3)GlcNAc(a1-3)Gal(b1-4)GlcNAc
# How it was run: as §1
# [11] = target: Gal(b1-3)GlcNAc(a1-6)Gal(b1-4)GlcNAc
# How it was run: as §1
# Gal(b1-3)GlcNAc(b1-2)Man = target: Gal(b1-3)GlcNAc(b1-2)Man
# How it was run: as §1
# [12] = target: Gal(b1-3)GlcNAc(b1-2)Man(a1-3)[Gal(b1-3)GlcNAc(b1-2)Man(a1-6)]Man(b1-4)GlcNAc(b1-4)GlcNAc
# How it was run: as §1
# [13] = target: Gal(b1-3)GlcNAc(b1-2)Man(a1-3)[Gal(b1-3)GlcNAc(b1-2)Man(a1-6)]Man(b1-4)GlcNAc(b1-4)[Fuc(a1-6)]GlcNAc
# How it was run: as §1
# [14] = target: Gal(b1-3)GlcNAc(b1-2)Man(a1-3)[GlcNAc(b1-4)][Gal(b1-3)GlcNAc(b1-2)Man(a1-6)]Man(b1-4)GlcNAc(b1-4)GlcNAc
# How it was run: as §1
# [15] = target: Gal(b1-3)GlcNAc(b1-2)[Gal(b1-3)GlcNAc(b1-6)]Man(a1-6)[Gal(b1-3)GlcNAc(b1-2)Man(a1-3)]Man(b1-4)GlcNAc(b1-4)GlcNAc
# How it was run: as §1
# [16] = target: Gal(b1-3)GlcNAc(b1-3)Gal(b1-3)GlcNAc
# How it was run: as §1
# [17] = target: Gal(b1-3)GlcNAc(b1-3)Gal(b1-4)Glc
# How it was run: as §1
# [18] = target: Gal(b1-3)GlcNAc(b1-3)Gal(b1-4)GlcNAc
# How it was run: as §1
# [19] = target: Gal(b1-3)GlcNAc(b1-3)Gal(b1-4)GlcNAc(b1-2)Man(a1-3)[Gal(b1-3)GlcNAc(b1-3)Gal(b1-4)GlcNAc(b1-2)Man(a1-6)]Man(b1-4)GlcNAc(b1-4)GlcNAc
# How it was run: as §1
# [20] = target: Gal(b1-3)GlcNAc(b1-3)Gal(b1-4)GlcNAc(b1-2)[Gal(b1-3)GlcNAc(b1-3)Gal(b1-4)GlcNAc(b1-6)]Man(a1-6)[Gal(b1-3)GlcNAc(b1-3)Gal(b1-4)GlcNAc(b1-2)Man(a1-3)]Man(b1-4)GlcNAc(b1-4)[Fuc(a1-6)]GlcNAc
# How it was run: as §1
# [21] = target: Gal(b1-3)GlcNAc(b1-3)Gal(b1-4)GlcNAc(b1-3)Gal(b1-4)GlcNAc(b1-2)[Gal(b1-3)GlcNAc(b1-3)Gal(b1-4)GlcNAc(b1-3)Gal(b1-4)GlcNAc(b1-6)]Man(a1-6)[Gal(b1-3)GlcNAc(b1-3)Gal(b1-4)GlcNAc(b1-3)Gal(b1-4)GlcNAc(b1-2)Man(a1-3)]Man(b1-4)GlcNAc(b1-4)[Fuc(a1-6)]GlcNAc
# How it was run: as §1
# [22] = target: Gal(b1-3)GlcNAc(b1-3)Gal(b1-4)GlcNAc(b1-6)[Gal(b1-3)GlcNAc(b1-3)]Gal(b1-4)Glc
# How it was run: as §1
# [23] = target: Gal(b1-3)GlcNAc(b1-3)Gal(b1-4)[Fuc(a1-3)]GlcNAc
# How it was run: as §1
# [24] = target: Gal(b1-3)GlcNAc(b1-3)Gal(b1-4)[Fuc(a1-3)]GlcNAc(b1-6)[Gal(b1-3)GlcNAc(b1-3)]Gal(b1-4)Glc
# How it was run: as §1
# [25] = target: Gal(b1-3)GlcNAc(b1-3)GalNAc
# How it was run: as §1
# [26] = target: Gal(b1-3)GlcNAc(b1-6)Gal(b1-4)GlcNAc
# How it was run: as §1
binder,measurement,setting,value
"PVL (Psathyrella velutina), Q309D1_9AGAR (protein) MSVVVISQALPVPTRIPGVADLVGFGNGGVYIIRNSLLIQVVKVINNFGYDAGGWRVEKHVRLLADTTGDNQPDVVGFGENGVWISTNNGNNTFVDPPKMVLANFAYAAGGWRVEKHIRFMADLRKTGRADIVGFGDGGIYISRNNGGGQFAPAQLALNNFGYAQGWRLDRHLRFLADVTGDGLLDVVGFGENQVYIARNSGNGTFQPAQAVVNNFCIGAGGWTISAHPRVVADLTGDRKADILGFGVAGVYTSLNNGNGTFGAVNLVLKDFGVNSGWRVEKHVRCVSSLTNKKVGDIIGFGDAGVYVALNNGNGTFGPVKRVIDNFGYNQGWRVDKHPRFVVDLTGDGCADIVGFGENSVWACMNKGDGTFGPIMKLIDDMTVSKGWTLQKTVRYAANLYL",glycan array binding signal (z-score),Gal(a1-3)GalNAc,-0.368
same,glycan array binding signal (z-score),[1],-0.363
same,glycan array binding signal (z-score),[2],-0.373
same,glycan array binding signal (z-score),Gal(a1-4)Gal(b1-4)Glc,-0.343
same,glycan array binding signal (z-score),Gal(a1-4)Gal(b1-4)GlcNAc,-0.364
same,glycan array binding signal (z-score),[3],-0.362
same,glycan array binding signal (z-score),[4],-0.334
same,glycan array binding signal (z-score),Gal(a1-4)GlcNAc,-0.37
same,glycan array binding signal (z-score),Gal(a1-6)Glc,-0.349
same,glycan array binding signal (z-score),Gal(b1-2)Gal,-0.366
same,glycan array binding signal (z-score),Gal(b1-3)Gal,-0.347
same,glycan array binding signal (z-score),Gal(b1-3)Gal(b1-4)GlcNAc,-0.377
same,glycan array binding signal (z-score),Gal(b1-3)GalNAc,-0.367
same,glycan array binding signal (z-score),[5],-0.36
same,glycan array binding signal (z-score),[6],-0.363
same,glycan array binding signal (z-score),Gal(b1-3)GalNAc(b1-3)Gal,-0.309
same,glycan array binding signal (z-score),[7],-0.351
same,glycan array binding signal (z-score),[8],-0.363
same,glycan array binding signal (z-score),[9],-0.33
same,glycan array binding signal (z-score),Gal(b1-3)GlcNAc,-0.338
same,glycan array binding signal (z-score),[10],-0.368
same,glycan array binding signal (z-score),[11],-0.362
same,glycan array binding signal (z-score),Gal(b1-3)GlcNAc(b1-2)Man,-0.374
same,glycan array binding signal (z-score),[12],-0.274
same,glycan array binding signal (z-score),[13],-0.364
same,glycan array binding signal (z-score),[14],-0.341
same,glycan array binding signal (z-score),[15],-0.349
same,glycan array binding signal (z-score),[16],-0.337
same,glycan array binding signal (z-score),[17],-0.359
same,glycan array binding signal (z-score),[18],-0.364
same,glycan array binding signal (z-score),[19],-0.234
same,glycan array binding signal (z-score),[20],-0.341
same,glycan array binding signal (z-score),[21],-0.091
same,glycan array binding signal (z-score),[22],-0.31
same,glycan array binding signal (z-score),[23],-0.369
same,glycan array binding signal (z-score),[24],-0.367
same,glycan array binding signal (z-score),[25],-0.36
same,glycan array binding signal (z-score),[26],-0.369
